In article PMC6108835, “Target-Based Discovery of an Inhibitor of the Regulatory Phosphatase PPP1R15B” (Cell, 2018):

Molecular target: T1, bio-PP1c^1-322 (biotinylated PP1c) (human, UniProt P36873, biotin on the N-terminal biotin acceptor peptide (BAP))
T1 construct: human PP1cγ, catalytic subunit of protein phosphatase 1, aa 1-322; Only partially pure before capture; also called PP1cγ; PP1γc^1-322; source: Sf9 insect cells (baculovirus, pDW464, biotinylated in vivo by BirA), partially purified (HiTrap Q, Superdex 200); not shown: biotin acceptor peptide (BAP), N-terminal, kept
T1 sequence (P36873 1-322): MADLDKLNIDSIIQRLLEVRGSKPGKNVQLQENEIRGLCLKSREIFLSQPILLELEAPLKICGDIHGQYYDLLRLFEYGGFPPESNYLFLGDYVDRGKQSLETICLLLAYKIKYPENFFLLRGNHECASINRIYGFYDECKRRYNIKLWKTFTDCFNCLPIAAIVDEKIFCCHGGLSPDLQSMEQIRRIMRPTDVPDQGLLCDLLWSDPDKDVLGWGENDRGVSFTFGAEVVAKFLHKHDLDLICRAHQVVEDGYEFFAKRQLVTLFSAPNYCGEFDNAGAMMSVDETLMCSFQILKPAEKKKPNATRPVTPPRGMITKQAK
Assay: pull-down; partially purified bio-PP1c held on neutravidin agarose beads, washed, then incubated with or without 10 μM R15 (A or B) overnight at 4°C in IP buffer (50 mM Tris pH 7.5, 100 mM NaCl, 0.1 mM EGTA, 0.05% Tween 20, 0.1% NP40); Coomassie-stained gel, streptavidin-HRP blot
Settings: both partners purified

binding result: binds
B1: MBP-R15A^[…]-His (domain or fragment, human)
chain: EAECPPCIPPPSAFLKAWVYWPGEDTEEEEDEEEDEDSDSGSDEEEGEAEASSSTPATGVFLKSWVYQPGEDTEEEEDEDSDTGSAEDEREAETSASTPPASAFLKAWVYRPGEDTEEEEDEDVDSEDKEDDSEAALGEAESDPHPSHPDQRAHFRGWGYRPGKETEEEEAAEDWGEAEPCPFRVAIYVPGEKPPPPWAPPRLPLRLQRRLKRPETPTHDPDPETPLK[… about 80 residues …]APIPALTQTLPS
notes: PPP1R15A (R15A), regulatory subunit of protein phosphatase 1, […]; Construct in pMAL-c5x as described in Das et al., 2015; also called PPP1R15A; source: E. coli BL21-Gold (DE3) pLysS, purified (HisTrap, MBPTrap); not shown: MBP, N-terminal, kept; His6, C-terminal, kept
